This passage reports Kd, koff and kon results from publication PMC5531539 (PLoS ONE, 2017).

This experiment deals with T1, Recombinant soluble human HER2 extracellular domain (Homo sapiens, UniProt P04626).
T1 construct: human HER2 (ErbB2), soluble extracellular domain; also called HER2 ectodomain; Receptor-tyrosine kinase ErbB2 soluble ectodomain; source: bought: eBioscience
In words: SPR; BioRad ProteOn XPR36; HER2 or VEGF amine-coupled to a GLC chip (about 150 RU); Fab as analyte, 3-fold dilutions from 30, 60 or 120 nM; 25C; PBS, 0.05% Tween 20, 3.4 mM EDTA; 1:1 binding model, KD from koff/kon. The following applies: both partners purified.

As a reminder, the Kd is the equilibrium constant for the complex coming apart. What is called koff is a measure of how fast the partners let go of each other. The term kon denotes the second-order rate constant of association.

B1: Herceptin Fab HD102F HD31M LD28K (Fab, V domains shown)
VH: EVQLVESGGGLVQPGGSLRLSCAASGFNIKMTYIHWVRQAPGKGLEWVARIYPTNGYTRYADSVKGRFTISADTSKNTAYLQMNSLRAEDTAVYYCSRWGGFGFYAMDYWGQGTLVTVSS
VL: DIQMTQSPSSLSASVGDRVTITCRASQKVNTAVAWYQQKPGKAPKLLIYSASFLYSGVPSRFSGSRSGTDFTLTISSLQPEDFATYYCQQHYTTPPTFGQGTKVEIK
notes: as the heavy chain of m17 with the stated changes; numbers count on: the 1n8z PDB entry; as the light chain of m17 with the stated change; source: CHO-3E7, co-transfected, His-tag purified
On to B1, for which the Kd turned out to be 2.9 ± 0.7 pM, the koff came to 1.4e-05 s⁻¹ and the kon amounted to 5.1e+06 M⁻¹ s⁻¹.

B2: Herceptin Fab HD102F HD31M LD28R (Fab, V domains shown)
VH: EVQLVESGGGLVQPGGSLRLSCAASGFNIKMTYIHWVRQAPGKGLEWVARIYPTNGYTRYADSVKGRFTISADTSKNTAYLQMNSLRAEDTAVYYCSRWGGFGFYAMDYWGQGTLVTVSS
VL: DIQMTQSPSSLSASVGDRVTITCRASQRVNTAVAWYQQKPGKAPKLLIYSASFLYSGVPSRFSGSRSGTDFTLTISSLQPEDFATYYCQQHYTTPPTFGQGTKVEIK
notes: as for B1
For B2, the Kd stood at 4 ± 1.4 pM, the koff was determined as 1.9e-05 s⁻¹ and the on-rate constant (kon) was found to be 5e+06 M⁻¹ s⁻¹.

B3: Herceptin Fab HD102F HD31K LD28K (Fab, V domains shown)
VH: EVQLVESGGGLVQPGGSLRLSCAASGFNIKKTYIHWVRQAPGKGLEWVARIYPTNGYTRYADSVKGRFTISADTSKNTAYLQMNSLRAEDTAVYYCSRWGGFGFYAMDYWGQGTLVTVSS
VL: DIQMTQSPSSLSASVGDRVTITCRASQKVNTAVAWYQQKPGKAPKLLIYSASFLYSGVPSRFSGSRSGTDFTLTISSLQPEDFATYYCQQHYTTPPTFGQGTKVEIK
notes: as the heavy chain of m17 with the stated changes; numbers count on: the 1n8z PDB entry; as the light chain of m17 with the stated change; also called best triple mutant (Herceptin-HER2); source: CHO-3E7, co-transfected, His-tag purified
Take B3: the dissociation constant (Kd) is 1.9 ± 0.2 pM, the koff was 1.1e-05 s⁻¹ and the kon stood at 6.1e+06 M⁻¹ s⁻¹.

B4: Herceptin Fab HD102F HD31K LD28R (Fab, V domains shown)
VH: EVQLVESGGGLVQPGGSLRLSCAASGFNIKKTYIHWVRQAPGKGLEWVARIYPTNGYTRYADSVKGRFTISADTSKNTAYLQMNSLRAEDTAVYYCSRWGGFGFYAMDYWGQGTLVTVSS
VL: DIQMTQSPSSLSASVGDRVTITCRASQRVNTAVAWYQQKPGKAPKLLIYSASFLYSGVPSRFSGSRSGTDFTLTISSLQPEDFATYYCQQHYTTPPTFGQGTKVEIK
notes: as for B1
Turning to B4, the Kd came out at 2.5 ± 1 pM, the koff turned out to be 1.7e-05 s⁻¹ and the association rate constant (kon) was found to be 6.8e+06 M⁻¹ s⁻¹.
